The other results are listed elsewhere or left out.
Tested on: HSkMC (human skeletal muscle cells)
Assay: cytotoxicity call (relative viability < 0.9)
Conditions: 10 µM

SMILES	cytotoxicity call
CC(C)NC(=O)N(C)C[C@@H]1Oc2cc(C#Cc3ccccn3)ccc2S(=O)(=O)N([C@H](C)CO)C[C@H]1C	inactive
CO[C@@H](CN(C)C(=O)c1ccc2c(c1)OCO2)[C@H](C)CN([C@H](C)CO)S(=O)(=O)c1ccc(C)cc1	inactive
COc1ccc(CN2C[C@@H](C)[C@@H](OC)CN(C)C(=O)c3cc(NC(=O)c4nc5ccccc5s4)ccc3OC[C@H]2C)cc1	inactive
O=C(C[C@H]1CC=CC[C@@H](Cc2ccc(F)cc2)C(=O)OC[C@H](Cc2c[nH]c3ccccc23)NC1=O)NCCO	inactive
Cc1ccc(S(=O)(=O)Nc2ccc3c(c2)C(=O)N([C@H](C)CO)C[C@@H](C)[C@H](CN(C)S(=O)(=O)c2ccc(Cl)cc2)OCCCC[C@H](C)O3)cc1	inactive
CC(C)NC(=O)Nc1ccc2c(c1)C(=O)N([C@H](C)CO)C[C@H](C)[C@@H](CN(C)C(=O)Nc1ccc(C(F)(F)F)cc1)OCCCC[C@H](C)O2	inactive
CNC(=O)[C@H]1C[C@H]2CCN(S(=O)(=O)N(C)C)C[C@H]2O1	inactive
Cc1noc(C)c1NC(=O)Nc1cccc2c1O[C@@H](CN(C)S(=O)(=O)c1cn(C)cn1)[C@@H](C)CN([C@H](C)CO)C2=O	inactive
CC(C)NC(=O)N(C)C[C@@H]1Oc2ccc(NC(=O)CCN3CCOCC3)cc2CC(=O)N([C@H](C)CO)C[C@H]1C	inactive
Cc1noc(C)c1NC(=O)N(C)C[C@H]1OCCCC[C@H](C)Oc2ccc(NS(=O)(=O)c3ccccc3)cc2C(=O)N([C@H](C)CO)C[C@@H]1C	inactive

Reference: the antibiotic and cytotoxicity screens of Wong et al. (2023)
